Measurements from PubChem BioAssay (Tox21).
Where “and” joins values, the source holds several entries; their conditions need not be identical. Identical values can stand only once. This list was built around the results that the source calls inconclusive (neither active nor inactive); the mix of calls is not that of the screen. For some of these results: Potencies of inconclusive entries are doubtful fits and often do not repeat. Calls of active or inactive are those of the source. Unless noted, calls come from the whole dose curve; as a rule, active = well fitted curve in the direction sought with a large enough effect in the repeat runs; inconclusive = weak or mixed curves; inactive = no such curve, though single readings can be large; an effect the other way counts as inactive or inconclusive.

Tests used:
[1] = qHTS assay to identify small molecule that activate the aryl hydrocarbon receptor (AhR) signaling pathway - cell viability counter screen (AID 743086); note: nearly all actives have a fitted effect of over 45% in size
Summary of the method: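 HepG2-AhR-luc (HG2L7.5c1) cells, 4000/well, were preincubated 5 h at 37C, exposed to compound in qHTS format for 24 hr at 37C, then given CellTiter-Fluor for 30 min; viability was read as fluorescence in the reporter wells.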

[2] = target: Peroxisome proliferator-activated receptor gamma (Homo sapiens) (UniProt P37231); assay: qHTS assay to identify small molecule agonists of the peroxisome proliferator-activated receptor gamma (PPARg) signaling pathway (AID 743094; active = well fitted activation curve with a large enough effect in the signal ratio in the repeat runs, not every such curve was filed as active; inconclusive = weak or mixed curves, or effect the other way; inactive = no such curve, though single readings can be large or run the other way; the % refers to the signal ratio); conditions: HEK293H PPARg-UAS-bla, beta-lactamase FRET ratio, 17 h; activation: at 57 µM (top of the series) unless noted
Summary of the method: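 HEK293H PPARg-bla cells, 5 h settle at 37C/5% CO2; compound (DMSO) 17 h, 37C; B/G FRET substrate 1 h RT; fluorescence intensity read-out. qHTS format.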

[3] = target: Peroxisome proliferator-activated receptor gamma (Homo sapiens) (UniProt P37231); assay: qHTS assay to identify small molecule antagonists of the peroxisome proliferator-activated receptor gamma (PPARg) signaling pathway (AID 743191; calls by dose curve; note: nearly all actives have a fitted effect of over 30% in size; for ratio activity, negative = inhibition: % is set by controls: 0 for no effect and ±100 for the full control effect); conditions: HEK293H PPARg-UAS-bla, beta-lactamase ratio, antagonist, 17 h; ratio activity, negative = inhibition: at 62.6 µM (top of the series) unless noted
Summary of the method: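 GeneBLAzer PPARg UAS-bla HEK293H cells carrying a UAS-driven beta-lactamase reporter were plated at 3000 cells/well, preincubated 5 h at 37C, then given compound for 17 h at 37C; LiveBLAzer B/G FRET substrate was read after 1 h at room temperature.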

[4] = qHTS assay to identify small molecule antagonists of the peroxisome proliferator-activated receptor gamma (PPARg) signaling pathway - cell viability counter screen (AID 743194); conditions: PPARg-bla HEK293H viability, CellTiter-Glo luminescence, 17 h, co-treated with 50 nM rosiglitazone; activity change, negative = cytotoxicity: at 62.6 µM (top of the series) unless noted; note: nearly all actives have a fitted effect of over 55% in size
Summary of the method: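 PPARg-UAS-bla HEK293H cells were plated, rested 5 h at 37 C, then treated with compounds plus rosiglitazone (50 nM final) for 17 h at 37 C; viability was then read by CellTiter-Glo luminescence after 30 min at room temperature.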

[5] = qHTS assay for small molecule agonists of the antioxidant response element (ARE) signaling pathway (AID 743202; active = well fitted activation curve with a large enough effect in the signal ratio in the repeat runs, not every such curve was filed as active; inconclusive = weak or mixed curves, or effect the other way; inactive = no such curve, though single readings can be large or run the other way; the % refers to the signal ratio); conditions: HepG2 ARE-bla reporter, beta-lactamase FRET, 16 h; activation: at 73.3 µM (top of the series) unless noted
Summary of the method: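 Following a 16 h, 37 C exposure of reporter HepG2 cells (ARE-driven beta-lactamase, 2,000 cells/well) to compounds, FRET substrate was applied for 2 h at room temperature and fluorescence intensity recorded.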

[6] = qHTS assay for small molecule activators of the heat shock response signaling pathway - cell viability counter screen (AID 743209); conditions: HSE-bla HeLa viability, CellTiter-Glo luminescence, 5 h; activity change, negative = cytotoxicity: at 62.6 µM (top of the series) unless noted; note: nearly all actives have a fitted effect of over 50% in size
Summary of the method: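 HSE-bla HeLa; 1500 cells/well; overnight 37 C, 5% CO2; compound 5 h 37 C; LiveBLAzer B/G substrate 2.5 h RT; CellTiter-Glo 30 min RT; luminescence.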

[7] = qHTS assay for small molecule activators of the heat shock response signaling pathway (AID 743210; active = well fitted activation curve with a large enough effect in the signal ratio in the repeat runs, with a control signal flat, not every such curve was filed as active; inconclusive = weak or mixed curves; the % refers to the signal ratio); conditions: HeLa HSE-bla reporter, beta-lactamase ratio, 5 h; activation: at 62.6 µM (top of the series)
Summary of the method: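 Heat shock element–beta-lactamase HeLa reporter cells; qHTS with compounds for 5 h at 37 C; detection by FRET substrate fluorescence after 2.5 h at RT.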

[8] = target: Peroxisome proliferator-activated receptor delta (Homo sapiens) (UniProt Q03181); assay: qHTS assay to identify small molecule agonists of the peroxisome proliferator-activated receptor delta (PPARd) signaling pathway (AID 743212; calls by dose curve; for activation: % is set by controls: 0 for no effect and ±100 for the full control effect); conditions: HEK293H PPARd-UAS-bla, beta-lactamase FRET ratio, 17 h; activation: at 62.6 µM (top of the series) unless noted
Summary of the method: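 Beta-lactamase reporter read by fluorescence (LiveBLAzer B/G FRET, 2 h, room temperature). Test agents, in DMSO, incubated at 37 C with PPARd-bla HEK293H cells.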

[9] = qHTS assay to identify small molecule antagonists of the peroxisome proliferator-activated receptor delta (PPARd) signaling pathway - cell viability counter screen (AID 743213); conditions: PPARd-bla HEK293H viability, CellTiter-Glo luminescence, 17 h; viability change, negative = cytotoxic: at 62 µM (top of the series) unless noted; note: nearly all actives have a fitted effect of over 50% in size
Summary of the method: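 Luminescence from CellTiter-Glo, added after the bla read and incubated 30 min at room temperature, gives viability of HEK293H PPARd-bla cells exposed to compounds for 17 h at 37 C with 300 nM L165041.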

[10] = target: Peroxisome proliferator-activated receptor delta (Homo sapiens) (UniProt Q03181); assay: qHTS assay to identify small molecule antagonists of the peroxisome proliferator-activated receptor delta (PPARd) signaling pathway (AID 743215; active = well fitted inhibition curve with a large enough effect in the signal ratio in the repeat runs, not every such curve was filed as active; inconclusive = weak or mixed curves, or effect the other way; inactive = no such curve, though single readings can be large or run the other way; the % refers to the signal ratio;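 note: cells stimulated with agonist L165041 at 300 nM final during compound exposure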); conditions: HEK293H PPARd-UAS-bla, beta-lactamase FRET ratio, antagonist, 17 h; ratio activity, negative = inhibition: at 62 µM (top of the series) unless noted
Summary of the method: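 HEK293H GeneBLAzer PPARd UAS-bla reporter cells; cpd + L165041 300 nM final, 17 h 37 C; LiveBLAzer B/G FRET substrate 2 h RT; fluorescence intensity read-out. Antagonist mode.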

[11] = target: Bile acid receptor (Homo sapiens) (UniProt Q96RI1); assay: qHTS assay to identify small molecule antagonists of the farnesoid-X-receptor (FXR) signaling pathway (AID 743217; active = well fitted inhibition curve with a large enough effect in the signal ratio in the repeat runs, not every such curve was filed as active; inconclusive = weak or mixed curves, or effect the other way; inactive = no such curve, though single readings can be large or run the other way; the % refers to the signal ratio); conditions: HEK293T FXR-UAS-bla, beta-lactamase ratio, CDCA-stimulated, 16 h; activity change, negative = inhibition: at 62.6 µM (top of the series) unless noted
Summary of the method: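 Read-out: beta-lactamase FRET fluorescence (LiveBLAzer B/G substrate, 2 h, room temperature) in GeneBLAzer FXR-UAS-bla HEK 293T cells. Compounds were co-dosed with 50 uM chenodeoxycholic acid (final) and incubated 16 h at 37 °C.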

[12] = qHTS assay to identify small molecule agonists of the farnesoid-X-receptor (FXR) signaling pathway - cell viability counter screen (AID 743218); conditions: FXR-bla HEK293T viability, CellTiter-Glo luminescence, 16 h; viability change, negative = cytotoxic: at 62.6 µM (top of the series) unless noted; note: nearly all actives have a fitted effect of over 45% in size
Summary of the method: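 Luminescence from CellTiter-Glo, read after 30 min at RT, reports viability of GeneBLAzer FXR-UAS-bla HEK 293T cells treated 16 h with compounds in the wells used for the beta-lactamase reporter.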

[13] = target: Bile acid receptor (Homo sapiens) (UniProt Q96RI1); assay: qHTS assay to identify small molecule agonists of the farnesoid-X-receptor (FXR) signaling pathway (AID 743220; active = well fitted activation curve with a large enough effect in the signal ratio in the repeat runs, not every such curve was filed as active; inconclusive = weak or mixed curves, or effect the other way; the % refers to the signal ratio; for activation: % is set by controls: 0 for no effect and ±100 for the full control effect); conditions: HEK293T FXR-UAS-bla, beta-lactamase FRET ratio, 16 h; activation: at 62.6 µM (top of the series) unless noted
Summary of the method: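 FXR-UAS-bla HEK 293T cells carrying a UAS-driven beta-lactamase reporter were plated for 5 h at 37C/5% CO2, then exposed to DMSO-dissolved Tox21 10K compounds for 16 h at 37C. A LiveBLAzer B/G FRET substrate was loaded for 2 h at room temperature before fluorescence reading.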

[14] = target: Vitamin D3 receptor (Homo sapiens) (UniProt P11473); assay: qHTS assay to identify small molecule agonists of the vitamin D receptor (VDR) signaling pathway (AID 743222; calls by dose curve; for activation: % is set by controls: 0 for no effect and ±100 for the full control effect); conditions: HEK293T VDR-UAS-bla, beta-lactamase FRET ratio, 16 h; activation: at 63.5 µM (top of the series) unless noted
Summary of the method: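 Beta-lactamase reporter readout (LiveBLAzer B/G FRET, 2 h RT) in VDR-bla cells after 16 h compound treatment at 37C, 5% CO2; cells pre-incubated 4 h before pin transfer of DMSO solutions.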

[15] = target: Vitamin D3 receptor (Homo sapiens) (UniProt P11473); assay: qHTS assay to identify small molecule antagonists of the vitamin D receptor (VDR) signaling pathway (AID 743223; active = well fitted inhibition curve with a large enough effect in the signal ratio in the repeat runs, not every such curve was filed as active; inconclusive = weak or mixed curves, or effect the other way; inactive = no such curve, though single readings can be large or run the other way; the % refers to the signal ratio); conditions: VDR-UAS-bla HEK293T, beta-lactamase FRET ratio, 16 h; activity change, negative = inhibition: at 61 µM (top of the series) unless noted
Summary of the method: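 VDR-bla cells were plated, incubated 4 h at 37C, then given compound and 1alpha,25-dihydroxyvitamin D3 (3 nM final). After 16 h at 37C, LiveBLAzer B/G FRET substrate was added for 2 h at room temperature and fluorescence read.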

[16] = qHTS assay to identify small molecule antagonists of the vitamin D receptor (VDR) signaling pathway - cell viability counter screen (AID 743225); conditions: VDR-bla HEK293T viability, CellTiter-Glo luminescence, 16 h; viability change, negative = cytotoxic: at 61 µM (top of the series) unless noted; note: nearly all actives have a fitted effect of over 50% in size
Summary of the method: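 VDR-bla HEK 293T cells, 4 h pre-incubation at 37C, then compound plus 1-alpha,25-dihydroxyvitamin D3 (3 nM final) for 16 h. After the beta-lactamase FRET read, CellTiter-Glo was added to the same wells; luminescence after 30 min at room temperature.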

[17] = qHTS assay for small molecule agonists of the antioxidant response element (ARE) signaling pathway - cell viability counter screen (AID 743203; calls by dose curve; note: nearly all actives have a fitted effect of over 55% in size); conditions: ARE-bla HepG2 viability, CellTiter-Glo luminescence, 16 h; viability change, negative = cytotoxic: at 73.3 µM (top of the series)
Summary of the method: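 Luminescence read-out (CellTiter-Glo, 30 min at room temperature) measured cell viability in the same wells as the ARE beta-lactamase reporter. HepG2 ARE-bla cells were treated with compounds for 16 hrs at 37C/5% CO2.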

[18] = qHTS assay to identify small molecule antagonists of the farnesoid-X-receptor (FXR) signaling pathway - cell viability counter screen (AID 743221; active = well fitted cell-killing curve with a large enough effect in the repeat runs, not every such curve was filed as active; inconclusive = weak or mixed curves, or effect the other way; inactive = no such curve, though single readings can be large or run the other way; note: nearly all actives have a fitted effect of over 50% in size); conditions: FXR-bla HEK293T viability, CellTiter-Glo luminescence, 16 h; activity change, negative = cytotoxicity: at 62.6 µM (top of the series)
Summary of the method: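 FXR-UAS-bla HEK 293T cells were treated with test compounds plus chenodeoxycholic acid (50 uM final) for 16 h at 37 C. Cell viability in the same wells was then read as CellTiter-Glo luminescence after 30 min at room temperature.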

[19] = qHTS assay to identify small molecule agonists of the vitamin D receptor (VDR) signaling pathway - cell viability counter screen (AID 743224); conditions: VDR-bla HEK293T viability, CellTiter-Glo luminescence, 16 h; activity change, negative = cytotoxicity: at 62.6 µM (top of the series) unless noted; note: nearly all actives have a fitted effect of over 50% in size
Summary of the method: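 Cytotoxicity counter screen: VDR-bla cells, 16 h compound exposure at 37C, 5% CO2; CellTiter-Glo luminescence, 30 min RT, same wells as bla read.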
Potency is the fitted concentration of half-maximal effect; tags give direction and shape of the fitted curve or compound fluorescence and quenching.

UniProt Q96RI1, sequence (Q96RI1 whole entry, looked up): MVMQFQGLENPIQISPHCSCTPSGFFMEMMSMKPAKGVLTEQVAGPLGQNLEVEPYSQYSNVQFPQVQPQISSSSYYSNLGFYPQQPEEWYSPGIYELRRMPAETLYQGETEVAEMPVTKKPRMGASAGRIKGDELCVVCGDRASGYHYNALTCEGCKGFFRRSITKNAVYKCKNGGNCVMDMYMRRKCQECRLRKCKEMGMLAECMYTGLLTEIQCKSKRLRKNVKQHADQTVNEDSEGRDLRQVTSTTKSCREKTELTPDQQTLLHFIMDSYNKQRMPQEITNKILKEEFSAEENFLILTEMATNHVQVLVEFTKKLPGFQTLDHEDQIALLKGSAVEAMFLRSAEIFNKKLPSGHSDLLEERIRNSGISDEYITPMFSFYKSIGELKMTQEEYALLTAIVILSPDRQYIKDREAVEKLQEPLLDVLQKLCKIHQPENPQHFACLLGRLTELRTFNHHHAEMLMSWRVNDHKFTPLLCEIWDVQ
UniProt P37231, sequence (P37231 whole entry, looked up): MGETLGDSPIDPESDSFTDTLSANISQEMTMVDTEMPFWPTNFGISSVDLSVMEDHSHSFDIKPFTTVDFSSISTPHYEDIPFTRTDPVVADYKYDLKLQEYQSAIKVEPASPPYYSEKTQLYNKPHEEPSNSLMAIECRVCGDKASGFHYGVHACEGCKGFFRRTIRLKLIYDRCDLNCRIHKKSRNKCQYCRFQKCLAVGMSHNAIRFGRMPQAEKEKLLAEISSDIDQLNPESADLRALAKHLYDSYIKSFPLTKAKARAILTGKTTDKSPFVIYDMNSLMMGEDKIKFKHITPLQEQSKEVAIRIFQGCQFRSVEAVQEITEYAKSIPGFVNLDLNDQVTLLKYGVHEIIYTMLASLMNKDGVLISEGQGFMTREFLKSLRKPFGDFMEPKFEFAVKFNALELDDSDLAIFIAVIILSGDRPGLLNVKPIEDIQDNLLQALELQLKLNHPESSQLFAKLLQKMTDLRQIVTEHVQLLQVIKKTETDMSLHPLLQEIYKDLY
UniProt Q03181, sequence (Q03181 whole entry, looked up): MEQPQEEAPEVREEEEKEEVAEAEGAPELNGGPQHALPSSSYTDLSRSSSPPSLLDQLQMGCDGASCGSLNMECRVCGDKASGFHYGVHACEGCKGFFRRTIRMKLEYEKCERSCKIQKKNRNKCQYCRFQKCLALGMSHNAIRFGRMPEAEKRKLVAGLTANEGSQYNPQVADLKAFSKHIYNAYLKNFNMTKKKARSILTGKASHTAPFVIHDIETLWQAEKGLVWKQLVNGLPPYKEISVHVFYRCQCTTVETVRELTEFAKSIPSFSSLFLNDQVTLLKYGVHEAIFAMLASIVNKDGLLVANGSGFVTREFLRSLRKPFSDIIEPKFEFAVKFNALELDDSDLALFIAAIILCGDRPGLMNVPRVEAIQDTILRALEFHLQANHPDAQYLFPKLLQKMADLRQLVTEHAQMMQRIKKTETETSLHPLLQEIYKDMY
UniProt P11473, sequence (P11473 whole entry, looked up): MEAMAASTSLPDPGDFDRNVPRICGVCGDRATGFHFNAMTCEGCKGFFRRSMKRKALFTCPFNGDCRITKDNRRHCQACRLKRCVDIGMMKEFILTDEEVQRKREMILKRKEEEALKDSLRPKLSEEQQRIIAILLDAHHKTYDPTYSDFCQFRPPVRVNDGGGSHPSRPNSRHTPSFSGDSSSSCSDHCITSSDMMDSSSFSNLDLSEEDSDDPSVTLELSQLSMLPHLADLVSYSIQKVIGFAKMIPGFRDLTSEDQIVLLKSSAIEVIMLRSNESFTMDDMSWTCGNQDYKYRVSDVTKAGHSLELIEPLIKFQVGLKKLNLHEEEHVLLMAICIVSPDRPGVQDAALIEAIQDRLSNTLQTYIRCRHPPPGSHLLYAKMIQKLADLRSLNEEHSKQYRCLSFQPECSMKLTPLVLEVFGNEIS

O=C(Nc1cccc(C(F)(F)F)c1)c1cc(Br)cc(Br)c1O
active: Potency [4] 0.389 µM | Potency [9] 6.92 µM | Potency [12] 4.36 µM | Potency [16] 17.4 µM
inconclusive: Potency [1] 13.3 µM [falling, full curve] | Potency [2] 7.56 µM [fluorescent, partial curve] and 3.89 µM [fluorescent, full curve] | Potency [3] 1.74 µM [rising, full curve] | Potency [5] 4.86 µM [rising, full curve] | Potency [6] 0.549 µM [cytotoxic, full curve] | Potency [7] 6.66 µM | Potency [8] 3.09 µM [rising, partial curve] | Potency [10] 6.16 µM [full curve] | Potency [11] 6.16 µM [rising, full curve] | Potency [13] 6.16 µM [rising, partial curve] | Potency [14] 4.36 µM [rising, partial curve] | Potency [15] 24.5 µM [rising, partial curve]

CCN=C1C=CC(=C(c2ccc(N(CC)CC)cc2)c2ccc(N(CC)CC)cc2)c2ccccc21
inconclusive: Potency [2] 38.7 µM [cytotoxic, partial curve] | Potency [3] 21.7 µM [cytotoxic, partial curve] | Potency [5] 15.3 µM [falling, full curve] | Potency [7] 18.6 µM | Potency [8] 24.4 µM [falling, partial curve] | Potency [10] 24.4 µM [cytotoxic] | Potency [11] 17.3 µM | Potency [13] 54.6 µM [cytotoxic, single point] | Potency [15] 17.3 µM
active: Potency [1] 24.2 µM | Potency [4] 0.154 µM | Potency [17] 5.42 µM | Potency [9] 12.2 µM | Potency [12] 6.88 µM | Potency [18] 13.7 µM | Potency [19] 4.87 µM | Potency [16] 19.4 µM

CN1CCN(CCCN2c3ccccc3Sc3ccc(C(F)(F)F)cc32)CC1
inconclusive: Potency [1] 26.6 µM [falling, partial curve] | Potency [2] 30.1 µM [rising, partial curve, poor fit] | ratio activity, negative = inhibition [3] -7.02% | Potency [5] 33.5 µM [falling, single point] | Potency [7] 33.5 µM | activation [8] 16.9% | Potency [10] 33.5 µM [inhibitor, single point] | Potency [11] 33.5 µM [inhibitor, single point] | Potency [14] 9.44 µM [fluorescent, full curve] | Potency [15] 26.8 µM [single point] | Potency [19] 9.44 µM [cytotoxic, full curve]
active: Potency [4] 29.8 µM | Potency [12] 26.6 µM

CCc1cc(SCc2sc(-c3ccc(C(F)(F)F)cc3)nc2CN2CCN(c3ccc(OC)cc3)CC2)ccc1OCC(=O)O
active: Potency [4] 24.5 µM | Potency [9] 5.49 µM | Potency [12] 7.76 µM | Potency [19] 19.5 µM | Potency [16] 7.76 µM
inconclusive: Potency [1] 24.3 µM [falling, partial curve, poor fit] | Potency [2] 61.6 µM [falling, single point] | Potency [3] 7.76 µM | Potency [5] 27.3 µM | Potency [7] 47.1 µM | Potency [8] 11 µM [rising, partial curve] | Potency [10] 21.9 µM [rising, partial curve] | Potency [11] 19.5 µM | Potency [13] 0.389 µM [fluorescent, full curve, poor fit] | Potency [14] 3.09 µM [rising, full curve] | Potency [15] 13.8 µM [fluorescent, partial curve]

CC(C)(C)c1ccc(C(O)CCCN2CCC(C(O)(c3ccccc3)c3ccccc3)CC2)cc1 (stereo unspecified)
active: Potency [4] 13.3 µM | Potency [6] 21.1 µM | Potency [9] 7.5 µM | Potency [12] 10.6 µM
inconclusive: Potency [1] 23.7 µM [falling, partial curve, poor fit] | Potency [2] 23.9 µM | Potency [3] 33.5 µM [cytotoxic, single point] | Potency [5] 21.1 µM [falling, partial curve] | Potency [8] 4.73 µM [rising, partial curve] | Potency [10] 13.3 µM | Potency [11] 11.9 µM [rising, partial curve, poor fit] | activation [13] 29% | Potency [18] 13.3 µM [falling, single point] | activation [14] 11.6%
